Experimental data from the supplement of paper PMC11125491.
± gives the standard deviation of the averaged measurements. Growth of baker's yeast expressing single-residue variants of Pneumocystis jirovecii dihydrofolate reductase in 8.8 or 44 µM methotrexate (about 75% and 90% inhibition of the wild type). Selection coefficient per generation; 0 = like wild type, above 0 = less sensitive, below 0 = more sensitive or loss of function. No active / inactive call per row; the paper calls resistant above 0.220 (8.8 µM) or 0.243 (44 µM) together with a significance test. At 44 µM about 15% of codons end with one read or none, so the lowest values are floors (replicate rank correlation 0.74; 0.94 at 8.8 µM).

B1: UniProt A0EPZ9; numbered along this chain (parent)
chain: MDWQKSLTLIVALTLSRGIGLKNDLPWKLKSDMMFFSRVTSGLLVTRSTGQMNVVLMGRKTWESLPAHSRPLKNRINVVISRQEVLDLGGGAYHARSLDDALALLSQIYDSTSKIQLNRVFVIGGGELCKAAMEHSRLNRIIATVIHNEVDCDVFFPIDFRSSQSCLPWRKQDHSVLEAWVGSKVPQGKINENGFIYEFEMWIRDI

Variants of: B1
Assay: selection coefficient against synonymous wild-type codons (log2 per generation); higher = faster growth than wild type
Details: with Saccharomyces cerevisiae carrying the variant on a plasmid
Protocol: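 Pooled growth of yeast carrying single-residue variants of P. jirovecii dihydrofolate reductase (own DFR1 gene intact), two passages at 30 °C, three cultures, sequenced before and after. Codons with under 15 starting reads are left out; codons of one change are averaged.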

Row | Variant | selection coefficient against synonymous wild-type codons (log2) (methotrexate 8.8 µM) | selection coefficient against synonymous wild-type codons (log2) (methotrexate 44 µM)
1 | L9A | 0.0578 ± 0.025 | -0.0267 ± 0.15
2 | L9C | 0.142 ± 0.028 | 0.0925 ± 0.049
3 | L9D | -0.527 ± 0.11 | -0.28 ± 0.14
4 | L9E | -0.37 ± 0.1 | -0.197 ± 0.2
5 | L9F | 0.206 ± 0.035 | 0.212 ± 0.012
6 | L9G | -0.233 ± 0.055 | -0.218 ± 0.11
7 | L9H | -0.347 ± 0.033 | -0.222 ± 0.11
8 | L9I | 0.245 ± 0.028 | 0.181 ± 0.077
9 | L9K | -0.52 ± 0.052 | -0.23 ± 0.095
10 | L9M | 0.0544 ± 0.031 | -0.0504 ± 0.11
11 | L9N | -0.467 ± 0.061 | -0.151 ± 0.18
12 | L9P | -0.429 ± 0.11 | -0.16 ± 0.11
13 | L9Q | -0.443 ± 0.16 | -0.28 ± 0.1
14 | L9R | -0.545 ± 0.03 | -0.225 ± 0.12
15 | L9S | -0.368 ± 0.12 | -0.183 ± 0.1
16 | L9T | -0.205 ± 0.093 | -0.0623 ± 0.11
17 | L9V | 0.261 ± 0.039 | 0.221 ± 0.061
18 | L9W | 0.506 ± 0.0097 | 0.631 ± 0.023
19 | L9Y | 0.381 ± 0.031 | 0.471 ± 0.024
20 | I10A | 0.13 ± 0.036 | 0.223 ± 0.089
21 | I10C | 0.607 ± 0.026 | 0.705 ± 0.01
22 | I10D | 0.821 ± 0.046 | 1.11 ± 0.028
23 | I10E | 0.698 ± 0.021 | 0.889 ± 0.0079
24 | I10F | 0.553 ± 0.041 | 0.71 ± 0.022

Row | Variant | selection coefficient against synonymous wild-type codons (log2) (methotrexate 8.8 µM) | selection coefficient against synonymous wild-type codons (log2) (methotrexate 44 µM)
25 | I10G | 0.175 ± 0.025 | 0.34 ± 0.043
26 | I10H | 0.905 ± 0.048 | 1.18 ± 0.043
27 | I10K | -0.0967 ± 0.047 | 0.0248 ± 0.11
28 | I10L | 0.0119 ± 0.048 | 0.148 ± 0.079
29 | I10M | 0.08 ± 0.029 | 0.187 ± 0.036
30 | I10N | 0.626 ± 0.019 | 0.766 ± 0.011
31 | I10P | -0.0446 ± 0.066 | 0.163 ± 0.11
32 | I10Q | 0.0971 ± 0.094 | 0.24 ± 0.023
33 | I10R | -0.184 ± 0.085 | 0.0825 ± 0.12
34 | I10S | 0.313 ± 0.046 | 0.407 ± 0.072
35 | I10T | 0.653 ± 0.031 | 0.778 ± 0.033
36 | I10V | 0.475 ± 0.038 | 0.557 ± 0.056
37 | I10W | 0.566 ± 0.021 | 0.805 ± 0.021
38 | I10Y | 1.11 ± 0.053 | 1.46 ± 0.043
39 | V11A | 0.176 ± 0.056 | 0.215 ± 0.067
40 | V11C | 0.406 ± 0.042 | 0.457 ± 0.034
41 | V11D | 0.127 ± 0.04 | 0.408 ± 0.088
42 | V11E | 0.598 ± 0.025 | 0.848 ± 0.015
43 | V11F | 0.539 ± 0.022 | 0.669 ± 0.0068
44 | V11G | 0.552 ± 0.077 | 0.64 ± 0.09
45 | V11H | 0.676 ± 0.026 | 0.824 ± 0.068
46 | V11I | 0.0398 ± 0.047 | 0.168 ± 0.12
47 | V11K | 0.216 ± 0.058 | 0.225 ± 0.07
48 | V11L | 0.266 ± 0.044 | 0.307 ± 0.056

Row | Variant | selection coefficient against synonymous wild-type codons (log2) (methotrexate 8.8 µM) | selection coefficient against synonymous wild-type codons (log2) (methotrexate 44 µM)
49 | V11M | 0.593 ± 0.022 | 0.7452 ± 0.0072
50 | V11N | 0.166 ± 0.03 | 0.189 ± 0.12
51 | V11P | 0.0348 ± 0.035 | 0.346 ± 0.04
52 | V11Q | 0.736 ± 0.027 | 0.897 ± 0.02
53 | V11R | -0.357 ± 0.12 | -0.23 ± 0.12
54 | V11S | 0.406 ± 0.075 | 0.46 ± 0.077
55 | V11T | 0.476 ± 0.082 | 0.519 ± 0.12
56 | V11W | 0.0891 ± 0.048 | 0.221 ± 0.036
57 | V11Y | 0.692 ± 0.055 | 0.831 ± 0.022
58 | A12C | 0.172 ± 0.031 | 0.151 ± 0.11
59 | A12D | -0.329 ± 0.088 | -0.0751 ± 0.035
60 | A12E | -0.325 ± 0.1 | -0.344 ± 0.16
61 | A12F | -0.401 ± 0.046 | -0.153 ± 0.02
62 | A12G | 0.51 ± 0.024 | 0.568 ± 0.025
63 | A12H | -0.248 ± 0.082 | -0.0177 ± 0.088
64 | A12I | -0.00504 ± 0.08 | 0.0224 ± 0.12
65 | A12K | -0.55 ± 0.1 | -0.26 ± 0.07
66 | A12L | -0.435 ± 0.1 | -0.18 ± 0.17
67 | A12M | -0.27 ± 0.14 | -0.178 ± 0.066
68 | A12N | 0.623 ± 0.06 | 0.76 ± 0.07
69 | A12P | -0.425 ± 0.12 | -0.237 ± 0.17
70 | A12Q | -0.381 ± 0.087 | -0.125 ± 0.11
71 | A12R | -0.503 ± 0.12 | -0.313 ± 0.14
72 | A12S | 0.448 ± 0.049 | 0.515 ± 0.05

Row | Variant | selection coefficient against synonymous wild-type codons (log2) (methotrexate 8.8 µM) | selection coefficient against synonymous wild-type codons (log2) (methotrexate 44 µM)
73 | A12T | 0.312 ± 0.021 | 0.329 ± 0.079
74 | A12V | 0.202 ± 0.019 | 0.183 ± 0.035
75 | A12W | -0.532 ± 0.17 | -0.248 ± 0.1
76 | A12Y | -0.392 ± 0.063 | -0.101 ± 0.055
77 | L13A | 0.351 ± 0.058 | 0.333 ± 0.065
78 | L13C | 0.31 ± 0.045 | 0.261 ± 0.043
79 | L13D | 0.511 ± 0.014 | 0.644 ± 0.021
80 | L13E | 0.29 ± 0.02 | 0.273 ± 0.017
81 | L13F | 0.0893 ± 0.033 | 0.098 ± 0.053
82 | L13G | 0.527 ± 0.025 | 0.599 ± 0.027
83 | L13H | 0.232 ± 0.022 | 0.203 ± 0.018
84 | L13I | 0.174 ± 0.059 | 0.0641 ± 0.02
85 | L13K | 0.232 ± 0.016 | 0.221 ± 0.068
86 | L13M | 0.118 ± 0.043 | 0.0549 ± 0.046
87 | L13N | 0.322 ± 0.05 | 0.357 ± 0.057
88 | L13P | 0.672 ± 0.031 | 0.771 ± 0.054
89 | L13Q | 0.575 ± 0.035 | 0.589 ± 0.075
90 | L13R | 0.537 ± 0.089 | 0.588 ± 0.11
91 | L13S | 0.461 ± 0.068 | 0.421 ± 0.075
92 | L13T | 0.37 ± 0.081 | 0.327 ± 0.11
93 | L13V | 0.278 ± 0.021 | 0.268 ± 0.045
94 | L13W | 0.579 ± 0.024 | 0.635 ± 0.035
95 | L13Y | 0.291 ± 0.021 | 0.321 ± 0.09
96 | T14A | -0.131 ± 0.11 | -0.167 ± 0.11

Row | Variant | selection coefficient against synonymous wild-type codons (log2) (methotrexate 8.8 µM) | selection coefficient against synonymous wild-type codons (log2) (methotrexate 44 µM)
97 | T14C | -0.289 ± 0.079 | -0.203 ± 0.18
98 | T14D | 0.159 ± 0.028 | 0.0421 ± 0.11
99 | T14E | 0.107 ± 0.015 | 0.112 ± 0.065
100 | T14F | -0.292 ± 0.068 | -0.193 ± 0.2
101 | T14G | 0.0105 ± 0.035 | -0.13 ± 0.13
102 | T14H | 0.29 ± 0.026 | 0.324 ± 0.026
103 | T14I | -0.052 ± 0.027 | 0.0946 ± 0.035
104 | T14K | 0.0534 ± 0.034 | 0.156 ± 0.03
105 | T14L | -0.447 ± 0.13 | -0.241 ± 0.14
106 | T14M | -0.254 ± 0.086 | -0.191 ± 0.082
107 | T14N | 0.0842 ± 0.08 | 0.0875 ± 0.059
108 | T14P | 0.547 ± 0.11 | 0.672 ± 0.12
109 | T14Q | -0.0214 ± 0.056 | -0.0679 ± 0.039
110 | T14R | -0.0244 ± 0.075 | 0.158 ± 0.08
111 | T14S | -0.113 ± 0.093 | -0.121 ± 0.11
112 | T14V | 0.141 ± 0.042 | 0.201 ± 0.075
113 | T14W | -0.314 ± 0.26 | -0.0888 ± 0.24
114 | T14Y | -0.574 ± 0.018 | -0.259 ± 0.099
115 | L15A | 0.388 ± 0.035 | 0.382 ± 0.068
116 | L15C | 0.0967 ± 0.021 | 0.116 ± 0.057
